# Measurements published in publication PMC4336329 (PLoS ONE, 2015).
# Out of some 310,000 compounds screened, about 14,000 (4.5%) showed an effect of 50% or more. The effect is printed as a negative number. The list shows a part of the results.
# Biological target: human ether-à-go-go-related gene (hERG) potassium channel (human, UniProt Q12809)
# Assay: primary screen, population patch clamp on CHO cells stably expressing hERG
# 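Also: peak tail current of the secondary pulse compared with the same well before compound.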
# Chain of human ether-à-go-go-related gene (hERG) potassium channel (Q12809 whole entry, looked up): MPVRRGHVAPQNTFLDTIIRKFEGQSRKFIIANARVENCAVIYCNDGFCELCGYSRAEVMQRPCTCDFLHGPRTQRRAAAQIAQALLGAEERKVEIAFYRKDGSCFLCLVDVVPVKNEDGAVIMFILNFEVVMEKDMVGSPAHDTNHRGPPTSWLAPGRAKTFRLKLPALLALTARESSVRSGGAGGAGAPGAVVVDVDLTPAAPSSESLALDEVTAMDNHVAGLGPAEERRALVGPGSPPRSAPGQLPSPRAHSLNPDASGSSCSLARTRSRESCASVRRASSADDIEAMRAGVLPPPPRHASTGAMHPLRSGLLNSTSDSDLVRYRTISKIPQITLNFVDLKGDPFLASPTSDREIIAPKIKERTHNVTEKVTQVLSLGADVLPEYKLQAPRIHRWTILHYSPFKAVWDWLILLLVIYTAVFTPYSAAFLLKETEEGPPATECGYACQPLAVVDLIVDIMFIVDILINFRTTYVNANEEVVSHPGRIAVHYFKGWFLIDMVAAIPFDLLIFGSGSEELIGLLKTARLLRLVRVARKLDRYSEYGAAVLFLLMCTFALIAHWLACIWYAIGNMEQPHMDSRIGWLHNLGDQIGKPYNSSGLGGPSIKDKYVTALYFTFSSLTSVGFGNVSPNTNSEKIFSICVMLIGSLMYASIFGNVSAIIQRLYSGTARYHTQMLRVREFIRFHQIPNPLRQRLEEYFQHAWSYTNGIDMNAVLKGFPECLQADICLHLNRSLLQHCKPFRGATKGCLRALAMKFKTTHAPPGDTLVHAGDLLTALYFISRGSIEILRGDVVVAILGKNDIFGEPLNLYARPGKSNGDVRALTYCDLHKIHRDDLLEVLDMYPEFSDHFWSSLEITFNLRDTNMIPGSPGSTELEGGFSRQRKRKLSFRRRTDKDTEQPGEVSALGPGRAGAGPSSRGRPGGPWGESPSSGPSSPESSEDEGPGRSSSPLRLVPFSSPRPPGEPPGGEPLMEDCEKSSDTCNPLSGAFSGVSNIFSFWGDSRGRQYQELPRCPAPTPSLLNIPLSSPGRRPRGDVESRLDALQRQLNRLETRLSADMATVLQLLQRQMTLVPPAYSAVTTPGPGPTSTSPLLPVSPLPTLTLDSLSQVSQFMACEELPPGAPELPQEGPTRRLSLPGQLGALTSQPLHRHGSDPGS
row,SMILES,"hERG current change (%, negative = inhibition) at 10uM [%]"
1,O=C(Cn1nnc(-c2ccc(NC(=O)c3ccccc3F)cc2)n1)NCc1ccc(F)cc1,-2.52
2,CN(Cc1c(C(=O)N/N=C/c2cccs2)nnn1-c1nonc1N)c1ccccc1,-0.483
3,CC(=O)N1CCCc2ccc(NS(=O)(=O)c3ccc(C)cc3)cc21,-7.31
4,CCOCCCNCc1ccc(OC)cc1.O=C(O)C(=O)O,2.56
5,O=C1C2CCCN2C(=O)N1CCCCN1CCN(c2cccc(C(F)(F)F)c2)CC1 (centres unmarked),-60.9
6,CC(C)NC(=O)NC(=O)CSc1nncs1,12.8
7,Cc1cc(F)ccc1NC(=O)c1cc(S(=O)(=O)N2CCc3ccccc32)cn1C,-8.65
8,CC1(C)C(=O)Nc2ccccc2N1C(=O)COC(=O)CSc1ccc(Cl)cc1,18.3
9,Cc1cc(C)c(OCC(=O)OCC(=O)NCC2CCCCC2)c(C)c1,7.92
10,COc1cccc2c1OC1(C)CC2NC(=O)N1 (centres unmarked),0.978
11,Cc1c(O)ccc(C(=O)CN2CCN(c3ccccc3F)CC2)c1O,22.6
12,O=C(CSc1ccc2nnc(-c3ccccn3)n2n1)NCc1ccco1,-63.1
13,Cn1ccnc1C(O)c1ccccc1 (centres unmarked),21.1
14,Br.CCc1ccc(C(=O)CN2CCSC2=N)cc1,0.361
15,CC(C)CC(=O)Nc1cccc(C(C)O)c1 (centres unmarked),-8.15
16,O=C1NC(=O)c2cc(NC(=O)C3CCCCC3)ccc21,-5.18
17,CCn1c(NC(=O)c2cccc(Cn3cc(Cl)cn3)c2)nc2ccccc21,-4.01
18,Nc1ccc(C(=O)N/N=C/c2cn(Cc3ccccc3F)c3ccccc23)cc1,12.5
19,Nc1nnc(SCC(=O)c2ccc([N+](=O)[O-])cc2)s1,-3.81
20,CCCCN1C(=O)C2ON(c3ccccc3C)C(c3ccco3)C2C1=O (centres unmarked),2.91
21,Cc1ccccc1NC(=O)COc1coc(CN2CCN(Cc3ccccc3)CC2)cc1=O,-53.3
22,COc1ccc(OC)c2c(C)c(C)[nH]c12,-4.4
23,S=c1[nH]nc(-c2cccc3ccccc23)n1-c1cccnc1,24.6
24,CCCCC(=O)Nc1ccc2c3c(cccc13)C(=O)N2CC,5.28
25,CCOC(=O)C1CCN(C(=O)C2CCN(c3nn4c(=O)cc(C)nc4s3)CC2)CC1,3.2
26,CN(Cc1ccc(Cl)cc1)C(=O)COC(=O)CSc1ccc([N+](=O)[O-])cc1,-6
